Measurements taken from PubChem BioAssay AID588342 (National Center for Advancing Translational Sciences (NCATS), 2011).
Out of some 360,000 compounds screened, about 25,000 (6.9%) were called active. Inconclusive means that the source gave no clear call. Such entries were picked first, then a sample of the others. Calls come from the whole dose curve; as a rule, active = well fitted inhibition curve with a large enough effect; inconclusive = small, poorly fitted or top-dose-only effect; inactive = flat fitted curve, though single readings scatter. Where the call is inconclusive, the potency comes from a doubtful curve fit.

molecular target: Luciferin 4-monooxygenase (Photinus pyralis) (UniProt P08659); assay: qHTS profiling assay for firefly luciferase inhibitor/activator using purifed enzyme and Km concentrations of substrates (counterscreen for miR-21 project); conditions: purified FLuc, luminescence inhibition; series mostly up to 57.5 µM; note: nearly all actives have a fitted effect of over 55% in size
Chain of UniProt P08659 (P08659 whole entry, looked up): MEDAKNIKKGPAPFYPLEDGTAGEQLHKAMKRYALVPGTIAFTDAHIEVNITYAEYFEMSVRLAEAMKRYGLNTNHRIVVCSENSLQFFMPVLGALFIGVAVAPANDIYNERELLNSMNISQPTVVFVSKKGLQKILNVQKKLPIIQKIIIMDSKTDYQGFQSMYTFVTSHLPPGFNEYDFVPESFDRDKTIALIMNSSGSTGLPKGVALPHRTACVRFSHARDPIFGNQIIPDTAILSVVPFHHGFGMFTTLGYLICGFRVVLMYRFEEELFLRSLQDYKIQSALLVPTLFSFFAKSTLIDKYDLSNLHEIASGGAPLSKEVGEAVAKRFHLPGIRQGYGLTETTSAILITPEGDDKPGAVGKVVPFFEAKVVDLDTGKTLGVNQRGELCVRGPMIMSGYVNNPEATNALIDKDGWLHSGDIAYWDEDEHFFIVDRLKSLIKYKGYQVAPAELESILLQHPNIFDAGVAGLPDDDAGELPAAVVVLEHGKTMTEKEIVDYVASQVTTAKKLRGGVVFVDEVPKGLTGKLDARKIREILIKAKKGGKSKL
In short: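 Biochemical qHTS of compounds, final roughly 60 µM downward over six points, against 10 nM purified firefly luciferase using Km concentrations of substrates (10 uM D-luciferin, 10 uM ATP) in Tris acetate pH 7.5 buffer; luminescence output.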
Potency is the fitted concentration of half-maximal effect; tags give direction and shape of the fitted curve.

| SMILES | Potency |
| --- | --- |
| CCOc1ccc(S(=O)(=O)N2CCCCC2)cc1NC(=O)Cc1cccc(C(F)(F)F)c1 | inactive |
| Cc1ccnc(NC(=O)c2ccc(C(=O)c3ccccc3)cc2)c1 | active: 0.953 µM |
| CCCCC1CCC(c2nc(-c3cccnc3)no2)CC1 (stereo unspecified) | inconclusive: 26.9 µM [inhibitor, single point] |
| CCc1ccccc1NS(=O)(=O)c1ccc2[nH]cc(C(=O)N(CC)Cc3ccccc3)c(=O)c2c1 | inconclusive: 19 µM [inhibitor, partial curve] |
| Cc1cc(C)nc(NC(=O)/C=C/c2ccc(Cl)cc2)n1 | inconclusive: 26.9 µM [inhibitor, partial curve, poor fit] |
| COC(=O)c1ccc(CSC2=NCCS2)cc1 | inconclusive: 6.01 µM [inhibitor, single point] |
| CCCn1c(C)cc(C(=O)COC(=O)CN=C2NS(=O)(=O)c3ccccc32)c1C | inconclusive: 21.3 µM [inhibitor, partial curve] |
| O=C(Nc1nc2c(F)cc(F)cc2s1)c1ccccn1 | active: 0.675 µM |
| CCCCOc1ccc(C(=O)NCC(=O)OCC(=O)N2CCN(S(=O)(=O)c3ccc(C)cc3C)CC2)cc1 | inconclusive: 37.9 µM [inhibitor, single point] |
| COc1cc(/C=C2\NC(=S)NC2=O)ccc1OCc1cccc(C(=O)O)c1 | active: 0.379 µM |
| CCOC(=O)c1sc(NC(=O)/C=C/c2ccc(F)cc2)nc1C | inconclusive: 0.0054 µM [inhibitor, partial curve, poor fit] |
| COc1ccc(-c2cn(Cc3ccc(C)cc3)nn2)cc1 | inconclusive: 3.01 µM [inhibitor, full curve] |
| CCCCC1(C)Nc2ccccc2-c2nc3ccccc3n21 (stereo unspecified) | inconclusive: 19 µM [inhibitor, partial curve] |
| COCCn1nnnc1C(C(C)C)N1CCSCC1 (stereo unspecified) | inactive |
| CN(C)S(=O)(=O)N1CCC(Oc2ccc(C(=O)NCc3cnn(C)c3)cc2)CC1 | inactive |
| O=C(CSc1ccccc1)NCc1ccc(F)cc1 | inconclusive: 37.9 µM [inhibitor, single point] |
| Cc1ccc(O)c(C2=Nc3ccccc3C2(C)C)c1 | active: 12 µM |
| Cc1cccc(N=Cc2cc(Br)cc(Cl)c2O)c1 | inconclusive: 19 µM [inhibitor, partial curve] |
| CC(=O)c1ccc(OCc2cc(C(=O)NC3CCCCC3)no2)cc1 | inconclusive: 2.39 µM [inhibitor, partial curve, poor fit] |
| Cc1ccnc(NC(=S)NC(=O)c2cncc(Br)c2)c1 | inconclusive: 13.5 µM [inhibitor, partial curve] |
| CC(C)S(=O)(=O)C/C(N)=N/OC(=O)c1cc(Cl)cc(Cl)c1 | inactive |
| Cc1ccccc1CSc1nnc2[nH]c(=O)cc(-c3ccccc3)n12 | inconclusive: 4.78 µM [inhibitor, partial curve, poor fit] |
| O=C(Cc1ccc(F)cc1)N/N=C/c1ccc(-c2ccc(Cl)c(C(=O)O)c2)o1 | inconclusive: 23.9 µM [inhibitor, single point] |
| Cc1ccsc1C=Nc1ccc(O)cc1 | inconclusive: 21.3 µM [inhibitor, single point] |
| Nc1ccc2nc(CCCO)[nH]c2c1 | inactive |
| CNC(=O)COC(=O)c1cc(-c2ccco2)nc2ccccc12 | inconclusive: 30.1 µM [inhibitor, single point] |

| SMILES | Potency |
| --- | --- |
| CCN(CC)c1ccc(/C=N/NC(=O)c2cc(C)nc3ccccc23)cc1 | inconclusive: 37.9 µM [inhibitor, single point] |
| COc1cc(/C=C(\C#N)c2nc3ccccc3[nH]2)ccc1Oc1ccc([N+](=O)[O-])cn1 | inconclusive: 7.57 µM [inhibitor, full curve] |
| Clc1cccc(CSc2ccc(-c3cccnc3)nn2)c1 | inconclusive: 37.9 µM [inhibitor, partial curve, poor fit] |
| COc1cc(NC(=O)C2CCN(C(=O)c3sc4nc[nH]c(=O)c4c3C)CC2)cc(OC)c1OC | inactive |
| C[N+](C)(C)CC(=O)N1CCN(c2ccc3ccccc3n2)CC1 | inactive |
| CN(C(=O)CC1C(=O)NCCN1Cc1c(F)cccc1Cl)C1CCOCC1 (stereo unspecified) | inactive |
| Cc1cc(S(=O)(=O)NCc2ccc(N3CCN(C)CC3)cc2)c(C)s1 | inactive |
| COc1ccc(C(=O)O/N=C(\N)c2ccccn2)c(OC)c1 | active: 2.69 µM |
| CC(=O)NC(=S)Nc1sc2c(c1C(N)=O)CCC(C)C2 (stereo unspecified) | active: 9.53 µM |
| Nc1nc(Cl)cc(Sc2ccc3ccccc3c2)n1 | inconclusive: 33.8 µM [inhibitor, partial curve, poor fit] |
| COc1cc(OC)cc(C(=O)Nc2ccccc2C(=O)N2CCCC2)c1 | inconclusive: 23.9 µM [inhibitor, single point] |
| CCc1cccc(OCC(=O)Nc2ccc(S(=O)(=O)Nc3ncccn3)cc2)c1 | inconclusive: 19 µM [inhibitor, partial curve, poor fit] |
| CCC1CCCCN1S(=O)(=O)c1ccc(NC(=O)c2nc(S(C)(=O)=O)ncc2Cl)cc1 (stereo unspecified) | inconclusive: 33.8 µM [inhibitor, partial curve, poor fit] |
| O=C(NC1CCCCC1)c1ccc(S(=O)(=O)c2ccccc2Cl)c([N+](=O)[O-])c1 | inactive |
| CCCS(=O)(=O)Nc1ccc(N2CCCCC2)c(S(=O)(=O)Nc2ccccc2OC)c1 | inactive |
| COc1ccc(C(=O)Nc2ccc(C(F)(F)F)n(C)c2=O)cc1 | inconclusive: 8.49 µM [inhibitor, partial curve] |
| Cc1cccc(C)c1OCc1nc2c3cnn(-c4ccccc4F)c3ncn2n1 | inconclusive: 30.1 µM [inhibitor, single point] |
| COCCNC(=O)c1ccccc1NC(=O)c1ccccc1SC | inactive |
| Cc1nn(-c2nnc(C)c(=O)[nH]2)c(C)c1SCC(=O)Nc1ccc(C(C)C)cc1 | inconclusive: 21.3 µM [inhibitor, partial curve, poor fit] |
| Cc1ccc(C)c(OC(=O)c2cccc(S(=O)(=O)N3CCN(C)CC3)c2)c1 | inactive |
| CC(=O)c1ccc(S(=O)(=O)N2CCn3cccc3C2c2ccccc2F)cc1 (stereo unspecified) | inactive |
| OCCNNC(=S)NC1CC2C=CC1C2 (stereo unspecified) | inactive |
| O=C(NNC(=O)c1ccccc1F)c1ccc(-c2ccc(Cl)cc2)o1 | inconclusive: 23.9 µM [inhibitor, single point] |
| COc1ccccc1CCNC(=O)Cc1ccc(NC(=O)N2CCSc3ncccc32)cc1 | inactive |
| CC(=O)Nc1cccc(NC(=O)COc2ccc3c(c2)OCO3)c1 | active: 9.53 µM |
| CCN1CCN(Cc2c(O)ccc3c2O/C(=C\C=C\c2ccccc2OC)C3=O)CC1 | active: 4.78 µM |

| SMILES | Potency |
| --- | --- |
| CCc1ccc(-c2nn(CC(=O)NC3CCCCC3)c3c2cnc2ccc(F)cc23)cc1 | inactive |
| Cn1cccc1C1C(C#N)=C(N)OC2=C1C(=O)CCC2 (stereo unspecified) | inactive |
| O=C(Cc1cccs1)Nc1ccc(-c2nnn(CC(=O)N3CCOCC3)n2)cc1 | inconclusive: 26.9 µM [inhibitor, partial curve] |
| COc1ccc(C2=C(C)C(N3CCC(C(=O)Nc4ccccc4F)CC3)=NS2(=O)=O)cc1 | inactive |
| Cc1ccc(C(=O)COC(=O)c2cc(C)no2)c(C)c1 | inconclusive: 26.9 µM [inhibitor, partial curve, poor fit] |
| O=C(Nc1cccc(-c2ccc(N3CCOCC3)nn2)c1)c1ccc(F)cc1F | active: 1.07 µM |
| CCc1ccc(OC(=O)c2ccn(CC)n2)cc1 | active: 15.1 µM |
| O=C(O)CNC(=S)N(Cc1ccccc1F)C1CCCCC1 | inconclusive: 26.9 µM [inhibitor, partial curve, poor fit] |
| COc1cccc(-c2sc3ccc(OC)cc3c2C#CCCO)c1 | inconclusive: 33.8 µM [inhibitor, partial curve, poor fit] |
| COc1c(F)c(F)cc2c(=O)c(C(=O)O)cn(C3CC3)c12 | inactive |
| O=C1C=C(Nc2ccccc2)c2ccccc2C1=O | inconclusive: 37.9 µM [inhibitor, partial curve, poor fit] |
| COc1cccc(/C=N/Nc2ccc(Cl)nn2)c1 | inconclusive: 13.5 µM [inhibitor, partial curve] |
| CC(=O)Nc1ccc(S(=O)(=O)N(Cc2ccco2)Cc2cc3ccccc3[nH]c2=O)cc1 | inactive |
| Cc1cccc(NC(=O)CSc2ncc(-c3ccccc3)[nH]2)c1C | active: 13.5 µM |
| O=C(CCc1ccccc1)Nc1cc(S(=O)(=O)N2CCOCC2)ccc1N1CCCC1 | inactive |
| COc1ccccc1N1CCN(c2nc(-c3ccccc3)cc(C(F)(F)F)n2)CC1 | inactive |
| COC(=O)c1[nH]c2ccccc2c1NC(=O)/C=C/c1ccc2c(c1)OCO2 | inconclusive: 3.38 µM [inhibitor, full curve] |
| O=C(NC(=S)Nc1ccc(F)cc1)c1ccc2c(c1)OCCO2 | active: 1.9 µM |
| COc1cc(/C=N/NC(=O)c2cccs2)ccc1OCc1ccccc1 | inconclusive: 21.3 µM [inhibitor, partial curve] |
| O=C1CCCN1c1ccc(N2CCCC2=O)cc1 | inactive |
| Cc1cc(-c2cn3ccccc3n2)c(C)n1-c1ccccc1 | active: 0.757 µM |
| COc1ccc(NC(=O)Cn2c(=O)n(Cc3ccccc3OC)c(=O)c3cccnc32)cc1Cl | inconclusive: 7.57 µM [inhibitor, partial curve, poor fit] |
| Cc1ccc(-n2ncc3c(NC(C)c4ccccc4)ncnc32)cc1 (stereo unspecified) | active: 6.01 µM |
| COc1cccc(CNC(=O)Cc2c(C)c3c(cc(C)c4c(C)c(C)oc43)oc2=O)c1 | inactive |
